# Measurements from PubChem BioAssay AID894 (National Center for Advancing Translational Sciences (NCATS), 2007).
# Out of some 150,000 compounds screened, about 6,500 (4.3%) were called active. Inconclusive results, whose numbers are uncertain, are shown with a selection of clear calls. Calls follow the shape of the dose curve; as a rule, active = well fitted inhibition curve with a large enough effect (not every such curve was filed as active); inconclusive = small, poorly fitted or top-dose-only effect, or another doubt; inactive = no such curve, though single readings can be large or run the other way. No potency is given beside an inconclusive call; the fits are too rough.
# Target: 15-hydroxyprostaglandin dehydrogenase [NAD(+)] (Homo sapiens) (UniProt P15428)
# Sequence of UniProt P15428 (P15428 whole entry, looked up): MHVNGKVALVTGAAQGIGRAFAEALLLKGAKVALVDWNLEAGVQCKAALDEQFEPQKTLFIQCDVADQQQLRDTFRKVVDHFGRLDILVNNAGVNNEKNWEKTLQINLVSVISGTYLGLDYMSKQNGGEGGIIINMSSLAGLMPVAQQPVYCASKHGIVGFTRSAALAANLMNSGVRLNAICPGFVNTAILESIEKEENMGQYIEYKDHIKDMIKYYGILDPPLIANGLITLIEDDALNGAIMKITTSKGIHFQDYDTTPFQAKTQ
# Assay: qHTS Assay for Inhibitors of HPGD (15-Hydroxyprostaglandin Dehydrogenase)
# Conditions: purified HPGD, NADH fluorescence kinetic, PGE2 substrate; activity change, negative = inhibition: stronger effect = lower value
# Method in brief: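 NADH formation kinetics: reaction with 30 uM PGE2 and 1 mM NAD+ (final), 20 nM enzyme, Tris-HCl pH 8 with Tween 20, after 15 min compound preincubation at room temperature. Fluorescence change, last versus first of five reads.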
# % is scaled to controls: 0 for no effect and ±100 for the full control effect; potency is read from the fitted curve at half-maximal effect; tags tell the direction and shape of the fitted curve.
Structure (SMILES),Potency,"activity change, negative = inhibition"
CC(C)Oc1ccc(CNC(=O)Cn2c(=O)oc3ccccc32)cc1,active: 20 µM,–
O=C(c1cccs1)N1CCN(C(=O)N2CCOCC2)CC1,–,inactive: 2.42%
O=C(c1ccc(CSc2ccccc2)cc1)N1CCCCCC1,active: 0.316 µM,–
COC(=O)c1c(-c2ccccc2)csc1NC1=NS(=O)(=O)c2ccccc21,"inconclusive [inhibitor, partial curve]",–
CCOC(=O)N1CCC(NC(=O)C(NC(=O)C2CCCCC2)C(C)C)CC1 (stereo unspecified),"inconclusive [inhibitor, single point]",–
O=C(CSc1nc2ccccc2o1)N1CCN(C(=O)c2ccco2)CC1,–,inactive: -12.7%
CCCCCC(=O)Nc1ccc2oc(-c3cccnc3)nc2c1,"inconclusive [inhibitor, partial curve]",–
O=C(COC(=O)c1ccccc1O)Nc1ccc(OC(F)F)cc1,"inconclusive [inhibitor, single point]",–
CC(C)c1nc(N2CCOCC2)c(C#N)c2c1COC(C)(C)C2,"inconclusive [inhibitor, partial curve]",–
CCOC(=O)CCSc1nc(C)c2cc(C)c(C)cc2n1,"inconclusive [inhibitor, partial curve]",–
c1ccc(Cn2nnc3c(Nc4ccc5c(c4)OCO5)nc(C4CC4)nc32)cc1,"inconclusive [inhibitor, partial curve]",–
CC1=CC(C)C2C(=O)N(O)C(=O)C2C1 (stereo unspecified),–,inactive: 1.94%
CCn1c(Cc2cccn2C)nnc1SCC(=O)c1ccc(C)cc1,"inconclusive [inhibitor, partial curve]",–
COC(=O)c1ccc2nc(Nc3nc4ccc(F)cc4s3)sc2c1,"inconclusive [inhibitor, partial curve]",–
CN(C)C(=O)c1ccc(Oc2ccc(C(=O)N(C)C)cc2)cc1,active: 15.8 µM,–
COc1cc(C)c(CC/C(C)=C/C=C/C(C)=O)c(C)c1C,–,inactive: -17.6%
Cn1c(=O)c2c(nc(Cc3ccccc3)n2CC(=O)O)n(C)c1=O,–,inactive: -5.17%
Cc1n[nH]c(=O)nc1NCC1CCCO1 (stereo unspecified),active: 28.2 µM,–
Oc1[nH]c2ccccc2c1N=NC(=S)NCC1CCCO1 (stereo unspecified),"inconclusive [inhibitor, partial curve]",–
O=S1(=O)Nc2c(ccc3cccnc23)-c2ccccc21,–,inactive: -19.5%
CCOC(=O)c1c(NC(=O)c2ccc(Br)o2)sc2c1CCCC2,"inconclusive [inhibitor, partial curve]",–
CCCn1nc2cc(C(=O)NC3CCc4ccccc43)ccc2c1OCC (stereo unspecified),"inconclusive [inhibitor, single point]",–
Cc1cc(C)c(NC(=O)C2CSCCS2)c(C)c1 (stereo unspecified),active: 22.4 µM,–
Cc1cccc(/C=C\c2nc3ccccc3c(=O)[nH]2)c1,"inconclusive [inhibitor, partial curve]",–

Structure (SMILES),Potency,"activity change, negative = inhibition"
Cc1cnc(C)c(N2CCC(C(=O)NCc3cccs3)CC2)n1,–,inactive: -12.5%
Nc1nc(N)c2[nH]cnc2n1 (tested in a mixture with another compound),–,inactive: -9.21%
Cc1cc([N+](=O)[O-])ccc1NC(=S)NC(=O)Cc1ccccc1,active: 17.8 µM,–
COc1cc2cc(C(c3nnnn3C3CCCC3)N(C)C3CCCCC3)c(=O)[nH]c2cc1OC (stereo unspecified),"inconclusive [inhibitor, partial curve]",–
Cc1ccccc1-n1nc(C)c2cc(C(=O)NC3CC3)sc21,active: 22.4 µM,–
CCc1cc(=O)oc2cc(OCC(N)=O)c(Cl)cc12,"inconclusive [inhibitor, single point]",–
CCOC(=O)c1nn(-c2ccc(C)cc2)cc1C(=O)c1ccccc1,–,inactive: -20.2%
CC(C)c1cccc2nc3c(c(C(C)(C)C)c12)Cn1c-3cccc1=O,"inconclusive [inhibitor, partial curve]",–
COC(=O)c1ccc(N2CCN(CC(=O)c3ccc(-c4ccccc4)cc3)CC2)c([N+](=O)[O-])c1,"inconclusive [inhibitor, partial curve]",–
Cc1ccc(N2C(=O)[C@@H]3[C@H](C2=O)[C@H]2C=CC=NN2[C@@H]3C(=O)Nc2ccc(Cl)cc2)cc1,active: 35.5 µM,–
COc1ccc(C2Nc3ccccc3C(=O)N2Cc2ccco2)cc1COc1ccccc1F (stereo unspecified),"inconclusive [inhibitor, partial curve]",–
CC(C)(C)NCc1cc2ccccc2[nH]c1=O,"inconclusive [inhibitor, partial curve]",–
COc1ccccc1N(C)S(=O)(=O)c1ccc(C(=O)NC(C)(C)C)cc1,"inconclusive [inhibitor, partial curve, poor fit]",–
CCOc1c2ccc(C(=O)NCCc3cccs3)cc2nn1CC,"inconclusive [inhibitor, partial curve]",–
CCN(CC)C(=O)c1sc(NC(=O)c2cc(-c3ccc(C)s3)nc3ccccc23)c(C(=O)OC)c1C,"inconclusive [inhibitor, partial curve]",–
Cc1ccc(C2CC(c3ccccc3)=NN2C(=S)Nc2ccccc2)o1 (stereo unspecified),active: 17.8 µM,–
CCn1c(O)c(N=NC(=O)CNC(=O)c2ccco2)c2ccccc21,–,inactive: -3.31%
COC(=O)CNC(=O)COC(=O)c1cc(Cl)cc(Cl)c1N,"inconclusive [inhibitor, partial curve]",–
COc1ccc2nc(NC(=O)CSC3=NCCS3)sc2c1,–,inactive: -12.1%
O=C(Oc1ccccc1)C1O[C@@H]1c1ccccc1 (stereo partly specified),–,inactive: -5.11%
CCOC(=O)c1cn2nc(-c3ccc(OC)cc3)cc2nc1C1CCN(C(=O)OC(C)(C)C)CC1,"inconclusive [inhibitor, partial curve]",–
Cc1ccc2nc(-c3cccnc3SCC(=O)N3c4ccccc4CC3C)[nH]c2c1 (stereo unspecified),"inconclusive [inhibitor, single point]",–
CNC(=S)SCCOc1ccccc1C,"inconclusive [inhibitor, partial curve]",–
O=C(Cn1cnc2ccccc21)N/N=C/c1ccco1,"inconclusive [inhibitor, partial curve]",–

Structure (SMILES),Potency,"activity change, negative = inhibition"
O=C(c1ccccc1)c1ccc2nc(N3CCN(C(=O)c4ccco4)CC3)c3nncn3c2c1,"inconclusive [inhibitor, partial curve]",–
CCCc1nnc(SCC(=O)N2CCCCC2C)n1CC1CCCO1 (stereo unspecified),–,inactive: -11.5%
CC(O)CNc1cc(N)c([N+](=O)[O-])cc1[N+](=O)[O-] (stereo unspecified),–,inactive: -19.2%
O/N=C1\CC/C(=N\O)c2nn(-c3ccccc3Cl)nc21,–,inactive: -7.12%
CC1CCc2nn(CC(=O)NC3CCCC3)cc2C1 (stereo unspecified),"inconclusive [inhibitor, partial curve]",–
N#Cc1nc(-c2ccc(Cl)cc2)oc1NCc1cccc2c1OCO2,"inconclusive [inhibitor, partial curve]",–
S=C(Nc1ccc(Cl)cc1)Nc1cccc2cnccc12,"inconclusive [inhibitor, single point]",–
O=C(NCc1ccco1)c1ccccc1Br,active: 2 µM,–
O=C(CN1C(=O)c2ccccc2C1=O)Nc1nc(-c2cccc([N+](=O)[O-])c2)cs1,–,inactive: -9.74%
Cc1cccc(-c2n[nH]c(=S)n2/N=C/c2ccc(C)s2)c1,active: 3.98 µM,–
C=CCc1cccc2cc(C(=O)N(CC)CC)c(=O)oc12,"inconclusive [inhibitor, single point]",–
C=CC1=C(C(=O)O)N2C(=O)[C@@H](NC(=O)C(N=O)c3csc(N)n3)[C@H]2SC1 (stereo partly specified),"inconclusive [inhibitor, partial curve]",–
COc1ccc(CNC(=O)c2cc3c(=O)n4ccccc4nc3n(Cc3cccnc3)c2=N)cc1,"inconclusive [inhibitor, partial curve]",–
O=C(Cc1ccccc1)NCCc1ccc(Cl)cc1Cl,"inconclusive [inhibitor, partial curve]",–
CC1=CS/C(=C(/C#N)C(=O)NCc2ccco2)N1c1ccccc1,–,inactive: -7.14%
COCCOC(=O)C1=C(C)NC2=C(C(=O)CC(c3cccs3)C2)C1c1ccsc1 (stereo unspecified),"inconclusive [inhibitor, partial curve]",–
Cc1ccc(-c2[nH]c(-c3ccccc3)nc2SCC(=O)NCC2CCCO2)cc1 (stereo unspecified),"inconclusive [inhibitor, partial curve, poor fit]",–
Cn1sc(NC(=O)c2ccc(Cl)cc2)nc1=O,"inconclusive [inhibitor, partial curve]",–
Cc1csc(B(O)O)c1,–,inactive: -13%
CC1(C)CC2CC(C)(CN2S(=O)(=O)c2ccc(C(=O)Nc3cccc(S(=O)(=O)N4CCOCC4)c3)cc2)C1 (stereo unspecified),"inconclusive [inhibitor, partial curve]",–
Cn1c(C(=O)Nc2ccc3c(c2)OCCO3)cc2c(=O)n(C)c3ccccc3c21,"inconclusive [inhibitor, single point]",–
CCNC(=O)NC(=O)COC(=O)c1ccccc1SCC(=O)NC(=O)NCC,"inconclusive [inhibitor, partial curve]",–
Cc1nc(Nc2ccc(S(=O)(=O)N3CCCCC3C)cc2)c2nnn(Cc3ccccc3)c2n1 (stereo unspecified),"inconclusive [inhibitor, partial curve]",–
